Test [1] deals with T1, human OX40L on CHO-K1 cells (human, UniProt P23510 1-183).
T1 sequence (looked up): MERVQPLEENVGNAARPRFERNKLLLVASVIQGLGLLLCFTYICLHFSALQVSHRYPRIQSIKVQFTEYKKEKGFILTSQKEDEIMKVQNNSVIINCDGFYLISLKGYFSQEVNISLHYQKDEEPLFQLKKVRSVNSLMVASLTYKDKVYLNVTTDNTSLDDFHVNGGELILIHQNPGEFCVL
The test is described as follows: cell-based or functional assay.

Test [2] addresses T2, human TNFα (recombinant, soluble) (human, UniProt P01375 in part). The test is described as follows: cell-based or functional assay.
Test [3] deals with T2, human TNFα (recombinant, soluble). The test is described as follows: cell-based or functional assay. The source holds these as a separate data set.
T2 sequence (P01375 77-233 limits assumed): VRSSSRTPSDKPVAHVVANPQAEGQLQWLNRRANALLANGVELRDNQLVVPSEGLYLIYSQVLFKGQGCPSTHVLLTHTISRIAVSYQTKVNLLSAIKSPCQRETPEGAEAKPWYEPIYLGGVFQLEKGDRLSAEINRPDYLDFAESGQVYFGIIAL
Test [4] concerns the target T3, cynomolgus monkey TNFα (soluble) (cynomolgus monkey, UniProt P79337 77-233). The test is described as follows: cell-based or functional assay.
For test [5], the target named is T1, human OX40L on CHO-K1 cells. The test is described as follows: cell-based or functional assay. The source holds these as a separate data set.
For test [6], the target named is T4, cyno OX40L on CHO-K1 cells (cynomolgus monkey, UniProt G7NVH7 1-183).
T4 construct: whole, on cells
T4 sequence: T1 sequence (looked up) with R55Q, K73E
The test is described as follows: flow cytometry on fixed CHO-K1 cells, 48 h. On the procedure:
(§1) Samples were washed and resuspended in FACS Buffer (D-PBS with 10% FBS and 0.05% sodium azide supplemented with 5 nM TOPRO3). Cell suspensions were then analyzed on an iQuescreener. EC50 values were calculated using GraphPad Prism.

In test [7] the target is T1, human OX40L on CHO-K1 cells. The test is described as follows: flow cytometry on fixed CHO-K1 cells, 48 h. The method, then:
as §1

Test [8] has as its target T5, human serum albumin (human, UniProt P02768).
T5 construct: also called HSA; SA (human)
The test is described as follows: Gyrolab in-solution affinity, 2 h incubation. The method, then: (§2) Fitting of the dilution series was done using Gyrolab Analysis software, where KD- and receptor-controlled curves were analyzed to determine the KD value.

In test [9] the target is T6, cynomolgus monkey serum albumin (cynomolgus monkey).
T6 construct: also called cyno serum albumin; SA (cynomolgus monkey)
The test is described as follows: Gyrolab in-solution affinity, 2 h incubation. On the procedure:
as §2

In test [10] the target is T2, human TNFα (recombinant, soluble). The test is described as follows: Gyrolab in-solution affinity, 24 h incubation. The method, then:
as §2

The target of test [11] is T3, cynomolgus monkey TNFα (soluble). The test is described as follows: Gyrolab in-solution affinity, 24 h incubation. The method, then:
as §2

Test [12] deals with T7, human OX40L (recombinant, soluble) (human, UniProt P23510 51-183, limits assumed).
T7 construct: also called hOX40L
T7 sequence (looked up): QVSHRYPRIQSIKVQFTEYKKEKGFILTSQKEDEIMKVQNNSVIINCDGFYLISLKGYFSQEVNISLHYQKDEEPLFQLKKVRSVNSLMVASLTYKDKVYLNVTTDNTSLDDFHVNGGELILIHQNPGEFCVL
The test is described as follows: Gyrolab in-solution affinity, 24 h incubation. The method, then:
as §2

The target of test [13] is T8, cynomolgus monkey OX40L (soluble) (cynomolgus monkey, UniProt G7NVH7 51-183).
T8 construct: also called cyno OX40L
T8 sequence: T7 sequence (looked up) with R5Q, K23E
The test is described as follows: Gyrolab in-solution affinity, 24 h incubation. On the procedure:
as §2

The target in test [14] is T2, human TNFα (recombinant, soluble). The test is described as follows: Gyrolab in-solution affinity, 48 h incubation. On the procedure:
as §2

For test [15], the target named is T3, cynomolgus monkey TNFα (soluble). The test is described as follows: Gyrolab in-solution affinity, 48 h incubation. On the procedure: as §2
T3 sequence (P79337 77-233 limits assumed): as the sequence (P01375 77-233 limits assumed) above, with L37V, R44T, T72N, R138L counted along it
Test [16] deals with T7, human OX40L (recombinant, soluble). The test is described as follows: Gyrolab in-solution affinity, 48 h incubation. The method, then:
as §2

Test [17] concerns the target T8, cynomolgus monkey OX40L (soluble). The test is described as follows: Gyrolab in-solution affinity, 48 h incubation. On the procedure: as §2
The target of test [18] is T9, human membrane TNFα on HEK293H cells (human, UniProt P01375).
T9 construct: whole, on cells; also called membrane expressed TNFα
The test is described as follows: flow cytometry, fixed HEK293H membrane TNFα cells, 1 h. On the procedure:
as §1

Test [19] has as its target human TRAIL (human, UniProt P50591 114-281, limits assumed). The test is described as follows: SPR (ProteOn XPR36), construct immobilized, ligand injected.
Sequence of UniProt P50591 (P50591 114-281 limits assumed): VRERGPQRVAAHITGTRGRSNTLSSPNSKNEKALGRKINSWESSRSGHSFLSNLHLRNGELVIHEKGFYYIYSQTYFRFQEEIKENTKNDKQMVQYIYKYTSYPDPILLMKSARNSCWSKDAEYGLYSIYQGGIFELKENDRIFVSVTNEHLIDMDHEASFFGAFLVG
In test [20] the target is T10, human CD30L (human, UniProt P32971 63-234, limits assumed).
T10 sequence (looked up): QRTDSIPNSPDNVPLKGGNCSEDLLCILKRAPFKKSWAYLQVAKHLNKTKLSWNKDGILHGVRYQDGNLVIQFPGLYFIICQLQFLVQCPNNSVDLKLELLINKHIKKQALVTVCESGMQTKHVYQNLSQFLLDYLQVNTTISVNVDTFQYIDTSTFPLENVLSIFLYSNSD
The test is described as above.

Test [21] has as its target T11, human CD40L (human, UniProt P29965 113-261, limits assumed).
T11 sequence (looked up): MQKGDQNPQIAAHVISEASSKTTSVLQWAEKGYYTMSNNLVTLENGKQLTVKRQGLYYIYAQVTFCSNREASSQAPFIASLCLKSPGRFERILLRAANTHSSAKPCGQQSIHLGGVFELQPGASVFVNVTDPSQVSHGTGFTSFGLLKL
The test is described as above.

Test [22] concerns the target T9, human membrane TNFα on HEK293H cells. The test is described as follows: flow cytometry, fixed HEK293H membrane TNFα cells, 24 h. On the procedure:
as §1

The target is the same in test [23]. The test is described as follows: flow cytometry, viable HEK293H membrane TNFα cells, 1 h. The method, then:
as §1

Test [24] concerns the target T12, human FASL (human, UniProt P48023 134-281, limits assumed).
T12 construct: also called hFASL
T12 sequence (looked up): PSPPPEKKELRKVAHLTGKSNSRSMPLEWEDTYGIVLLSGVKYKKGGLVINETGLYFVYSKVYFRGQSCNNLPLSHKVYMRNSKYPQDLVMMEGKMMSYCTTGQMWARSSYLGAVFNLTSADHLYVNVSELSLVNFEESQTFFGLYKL
The test is described as follows: SPR (ProteOn XPR36), cytokine immobilized, construct injected. On the procedure:
(§3) TNF superfamily members human FASL, TNFβ, LIGHT, TL-1A, RANKL were tested as related cytokines for TNFα.
(§4) Flow rate during activation, deactivation and ligand injection was set to 30 μl/min. The pH of the 10 mM acetate immobilization buffer was chosen by subtracting ˜1.5 from the pl of each ligand.

Test [25] addresses T13, human TNFβ (human, UniProt P01374 35-205).
T13 construct: also called hTNFβ
T13 sequence (looked up): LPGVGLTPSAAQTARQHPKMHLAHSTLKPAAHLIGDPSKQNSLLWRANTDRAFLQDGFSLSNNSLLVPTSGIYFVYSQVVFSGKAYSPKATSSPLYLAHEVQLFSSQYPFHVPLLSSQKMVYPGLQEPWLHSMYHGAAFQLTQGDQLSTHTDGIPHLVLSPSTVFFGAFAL
The description is as above. The method, then:
as §3, §4

The target of test [26] is T14, human LIGHT (human, UniProt O43557 74-240, limits assumed).
T14 construct: also called hLIGHT
T14 sequence (O43557 74-240 limits assumed): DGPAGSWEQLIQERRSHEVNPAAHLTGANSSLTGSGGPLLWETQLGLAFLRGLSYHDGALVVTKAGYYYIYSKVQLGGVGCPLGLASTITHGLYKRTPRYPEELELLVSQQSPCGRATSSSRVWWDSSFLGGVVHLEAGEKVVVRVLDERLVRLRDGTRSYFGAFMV
Described as above. On the procedure: as §3, §4

In test [27] the target is T15, human TL-1A (human, UniProt O95150 72-251, limits assumed).
T15 construct: also called hTL-1A
T15 sequence (looked up): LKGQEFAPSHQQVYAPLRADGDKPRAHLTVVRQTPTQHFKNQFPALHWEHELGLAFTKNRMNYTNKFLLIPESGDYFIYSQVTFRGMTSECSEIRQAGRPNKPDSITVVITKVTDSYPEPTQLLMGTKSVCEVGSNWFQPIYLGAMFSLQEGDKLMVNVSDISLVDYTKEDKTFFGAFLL
The test is described as above. On the procedure: as §3, §4

Test [28] concerns the target T4, cyno OX40L on CHO-K1 cells. The test is described as follows: flow cytometry on fixed CHO-K1 cells expressing cyno OX40L, 48 h. On the procedure:
as §1

Test [29] has as its target T1, human OX40L on CHO-K1 cells. The test is described as follows: flow cytometry on fixed CHO-K1 cells expressing human OX40L, 48 h. On the procedure:
as §1

In test [30] the target is T16, human RANKL (human, UniProt O14788 140-317, limits assumed).
T16 sequence (looked up): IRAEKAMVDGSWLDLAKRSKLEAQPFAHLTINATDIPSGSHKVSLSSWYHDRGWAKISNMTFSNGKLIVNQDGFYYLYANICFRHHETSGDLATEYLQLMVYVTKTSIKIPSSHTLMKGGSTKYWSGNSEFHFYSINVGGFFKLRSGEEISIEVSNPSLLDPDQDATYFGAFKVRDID
The test is described as follows: SPR (ProteOn XPR36), RANKL injected over immobilized construct; also listed among the immobilized TNF related cytokines.

Changes are numbered by the printed parent chain. Bounds are passed on as bounds.

T9 sequence (P01375 whole entry): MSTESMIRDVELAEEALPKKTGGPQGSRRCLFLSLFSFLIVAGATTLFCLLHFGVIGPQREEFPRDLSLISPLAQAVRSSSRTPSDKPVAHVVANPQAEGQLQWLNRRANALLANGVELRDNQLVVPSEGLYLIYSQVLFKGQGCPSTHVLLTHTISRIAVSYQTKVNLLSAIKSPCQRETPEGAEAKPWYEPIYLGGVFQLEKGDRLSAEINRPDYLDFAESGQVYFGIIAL

B1: ISVD construct […] (VHH)
chain: DVQLVESGGGVVQPGGSLRLSCAASGRTFSSIYAKGWFRQAPGKEREFVAAISRSGRSTSYADSVKGRFTISRDNSKNTVYLQMNSLRPEDTALYYCAAVGGATTVTASEWDYWGQGTLVTVSSGGGGSGGGSEVQLVESGGGVVQPGGSLRLSCAASGRTFSSIYAKGWFRQAPGKEREFVAAISRSGRSTSYADSVKGRFTISRDNSKNTVYLQMNSLRPEDTALYYCAAVGGATTVTASEWDYWGQGTLVTVSSGGGGSGGGS[about 120 residues skipped]GGGGSGGGSEVQLVESGGGVVQPGGSLRLSCAASGFTFRSFGMSWVRQAPGKGPEWVSSISGSGSDTLYADSVKGRFTISRDNSKNTLYLQMNSLRPEDTALYYCTIGGSLSRSSQGTLVTVSSGGGGSGGGSEVQLVESGGGVVQPGGSLRLS[about 80 residues skipped]RGQGTLVKVSSA
notes: Pentavalent, trispecific single chain of five VHH: 1E07/1-9GS-1E07/1-9GS-1C02/1-9GS-ALB23002-9GS-1C02/1-A; Produced in Pichia pastoris; also called F0273000252; F0275000252
In the case of B1, the “OX40L PBMC assay (IC50, pM)” value in test [1] was found to be 1090 pM. Further, the “Ratio IC50 anti-hOX40L reference mAb/ISVD construct” value in test [1] was 10. Also, in test [2], the “NFkB assay IC50 (M), HEK293_NFκB-NLucP reporter” value is 3.1e-11 M. The “mean IC50 [nM] (@15 ng/ml human TNF), A549/NFκB-luc reporter” value in [3] was determined as 0.22 nM. The “mean IC50 [nM] (@10 ng/ml cyno TNF), A549/NFκB-luc reporter” value in [4] stood at 0.21 nM. The “PBMC activity assay IC50 (M), IL2 release” value in test [5] stood at 2.58e-09 M. The “factor of better binding than anti-hOX40L reference mAb” value in test [6] and in [7] was above 10 fold in each case. Further, the Kd in test [8] worked out at 10700 pM; in test [9], 11200 pM; in test [10], 8.9 pM; in [11] it was 41.3 pM; in test [12] it was 49.7 pM; in test [13] it was 8.3 pM. Moreover, the Kd in test [14] amounted to 8.6 pM; in test [15], 34.3 pM; in test [16], 28.2 pM; in test [17], 9.8 pM. For the same molecule, the EC50 in test [18] is 147 pM; in test [22], 20.2 pM; in test [23], 90.4 pM; in [28] it was 11.8 pM; in test [29], 13.3 pM. In addition, the binding result in [19] is “no binding (tested: 1 µM TRAIL)”; in [20] it was “no binding (tested: 1 µM CD30L)”; in test [21], “no binding (tested: 1 µM CD40L)”; in test [24], “no binding (tested: 10 nM or 300 nM F027300252)”; in test [25], “no binding (tested: 10 nM or 300 nM F027300252)”; in test [26], “no binding (tested: 10 nM or 300 nM F027300252)”. In addition, the binding result in test [27] is on record as “no binding (tested: 10 nM or 300 nM F027300252)”; in test [30] it was “no binding (tested: 1 µM RANKL; 10 nM or 300 nM F027300252)”.

B2: ISVD construct […] (VHH)
chain: DVQLVESGGGVVQPGGSLRLSCAASGRTFSSIYAKGWFRQAPGKEREFVAAISRSGRSTSYADSVKGRFTISRDNSKNTVYLQMNSLRPEDTALYYCAAVGGATTVTASEWDYWGQGTLVTVSSGGGGSGGGGSGGGGSGGGGSGGGGSGGGGSGGGGSEVQLVESGGGVVQPGGSLRLSCAASGRTFSSIYAKGWFRQAPGKEREFVAAISRSGRSTSYADSVKGRFTISRDNSKNTVYLQMNSLRPEDTALYYCAAVGGATTVTASEWDYWGQGTLVTVSSGGGGSGGGGSGGGGSGGGGSGGGGSGGGGSGGGGS[about 120 residues skipped]GGGGSGGGSEVQLVESGGGVVQPGGSLRLSCAASGFTFRSFGMSWVRQAPGKGPEWVSSISGSGSDTLYADSVKGRFTISRDNSKNTLYLQMNSLRPEDTALYYCTIGGSLSRSSQGTLVTVSSGGGGSGGGSEVQLVESGGGVVQPGGSLRLS[about 80 residues skipped]RGQGTLVKVSSA
B2: in [1], the “OX40L PBMC assay (IC50, pM)” value was found to be 866 pM and the “Ratio IC50 anti-hOX40L reference mAb/ISVD construct” value came out at 2.

(Values after patent US20210188986A1 (Ablynx, published 2021).)
